The text below walks through data of the supplement of paper PMC9446081.

Out of some 39,000 compounds screened, about 220 (0.56%) showed activity. This is one part of the list.
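Further: static incubation at 37 °C against the wild-type strain, values averaged over two biological replicates.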

For this test, the system named is Escherichia coli K-12 BW25113. The test can be described thus: relative growth (OD600 normalised to plate interquartile mean) (fraction); higher = less growth inhibition, active = 0.2 or less. The conditions noted are these: 50 µM; LB; incubation time: overnight (16-24 h).
In the case of `Cc1noc(C)c1NC(=O)Nc1ccc2c(c1)C(=O)N([C@@H](C)CO)C[C@H](C)[C@H](CN(C)C(=O)Nc1cccc3ccccc13)O2`, the relative growth is inactive: 0.994.

Regarding `COc1cccc(C#Cc2cnc3c(c2)C(=O)N([C@@H](C)CO)C[C@@H](C)[C@H](CN(C)C(=O)C2CCC2)O3)c1`, the relative growth was inactive: 0.998.

Consider `Cc1ccc(S(=O)(=O)N(C)C[C@H]2Oc3ccc(NC(=O)c4ccncc4)cc3C(=O)N([C@H](C)CO)C[C@H]2C)cc1`, for which the relative growth was inactive: 0.982.

With `O=C(C[C@@H]1CC[C@@H]2[C@H](COC[C@H](O)CN2S(=O)(=O)c2ccccc2F)O1)NCc1ccccc1F`, the relative growth is inactive: 1.02.

Take `C[C@H]1CN([C@@H](C)CO)C(=O)c2cc(NC(=O)CCCN(C)C)ccc2O[C@H]1CN(C)Cc1ccncc1`: the relative growth is inactive: 0.975.

As for `Cc1cc(C(=O)Nc2cccc3c2O[C@@H](CN(C)S(=O)(=O)c2ccc(Cl)cc2)[C@@H](C)CN([C@H](C)CO)C3=O)n(C)n1`, the relative growth was inactive: 0.989.

As to `C[C@@H]1CCCCO[C@@H](CN(C)C(=O)NC2CCCCC2)[C@@H](C)CN([C@@H](C)CO)C(=O)c2cc(NC(=O)C3CCCCC3)ccc2O1`, the relative growth is inactive: 1.01.

In the case of `C(=N\Cc1cccnc1)/c1c2ccccc2cc2ccccc12`, the relative growth was inactive: 1.01.

With `COc1ccc2c3c(n(c2c1)C)[C@H](CO)N(C[C@]13CN(Cc2cccc(c2)F)C1)C(=O)C1CCOCC1`, the relative growth was inactive: 1.01.

Regarding `Cc1noc(C)c1NC(=O)N(C)C[C@@H]1Oc2ccc(NC(=O)NC(C)C)cc2C(=O)N([C@@H](C)CO)C[C@@H]1C`, the relative growth is inactive: 0.989.

As for `COc1cc(N2CCC(N)CC2)ccc1Nc1ncc(Cl)c(-c2c[nH]c3ccccc23)n1`, the relative growth was inactive: 0.96.

Take `C[C@@H]1CN([C@H](C)CO)C(=O)c2cc(N(C)C)ccc2O[C@@H]1CN(C)S(=O)(=O)c1ccc(Cl)cc1`: the relative growth was inactive: 1.01.

Regarding `C[C@H](CO)N1C[C@H](C)[C@H](CN(C)S(C)(=O)=O)Oc2ccc(NC(=O)Nc3ccc(F)cc3)cc2CC1=O`, the relative growth was inactive: 1.02.

With `O=C(C[C@@H]1C[C@@H]2c3cc(NC(=O)NC4CCCC4)ccc3O[C@@H]2[C@H](CO)O1)NCc1ccc(-c2ccccc2)cc1`, the relative growth was inactive: 0.933.

In the case of `O=C(/C=C/c1ccc(O)c(O)c1)O[C@@H]1C[C@](O)(C(=O)O)C[C@@H](OC(=O)/C=C/c2ccc(O)c(O)c2)[C@H]1O`, the relative growth is inactive: 1.02.

In the case of `COc1ccc2c3c([nH]c2c1)[C@@H](CO)N(C[C@]13CCN(CC1)Cc1ccccc1)S(=O)(=O)c1cn(cn1)C`, the relative growth is inactive: 0.977.

As for `CCCC(=O)Nc1ccc2c(c1)C(=O)N(C)C[C@@H](OC)[C@@H](C)CN(Cc1ccc(-c3ccccn3)cc1)[C@H](C)CO2`, the relative growth is inactive: 0.999.

Regarding `C[C@H]1CN([C@@H](C)CO)C(=O)c2cccc(NC(=O)c3ccc(-c4nccs4)cc3)c2O[C@H]1CN(C)C(=O)Nc1ccccc1`, the relative growth is inactive: 0.993.

Turning to `CCc1nc2ccc(C(=O)N3CCN(S(=O)(=O)CC)CC3)cn2c1N(CC)C(=O)CCC1CCCC1`, the relative growth is inactive: 1.

In the case of `O=C1OC(c2ccc(O)cc2)(c2ccc(O)cc2)c2ccccc21`, the relative growth is inactive: 0.897.

Regarding `COc1cc(C(=S)N2CCOCC2)ccc1O`, the relative growth is inactive: 1.03.

In the case of `COc1cc(OC)c2c(=O)cc(-c3ccccc3)oc2c1`, the relative growth was inactive: 0.974.

As to `COc1ccc(S(=O)(=O)Nc2ccc3c(c2)C(=O)N([C@@H](C)CO)C[C@@H](C)[C@@H](CN(C)Cc2ccc4c(c2)OCO4)OCCCC[C@H](C)O3)cc1`, the relative growth is inactive: 0.99.

In the case of `COc1oc(C(=O)NC2CCCCC2)c(-c2ccc(Cl)cc2)c1S(=O)(=O)c1ccccc1Cl`, the relative growth is inactive: 1.

Regarding `C[C@H](CO)N1C[C@H](C)[C@@H](CN(C)S(=O)(=O)c2ccccc2)OCCCC[C@H](C)Oc2ccc(NC(=O)Nc3ccccc3)cc2C1=O`, the relative growth was inactive: 1.05.

As for `Cc1ccc(S(=O)(=O)N(C)C[C@H]2Oc3ccc(NC(=O)CCN4CCOCC4)cc3CC(=O)N([C@@H](C)CO)C[C@H]2C)cc1`, the relative growth is inactive: 1.

Regarding `CCNC(=O)[C@@H]1N[C@@H]2c3ccc(-c4cccc(C(=O)N(C)C)c4)c(=O)n3C[C@@H]2[C@H]1CO`, the relative growth is inactive: 1.02.

For the compound `COCC#Cc1ccc2c(c1)O[C@H](CN(C)C(=O)Nc1ccc(OC)cc1)[C@H](C)CN([C@@H](C)CO)S2(=O)=O`, the relative growth was inactive: 1.

`Cc1cc(C(=O)Nc2cccc3c2O[C@H](CN(C)C(=O)NC2CCCCC2)[C@H](C)CN([C@@H](C)CO)C3=O)n(C)n1`: the relative growth was inactive: 0.992.

In the case of `CC(C)NC(=O)N(C)C[C@H]1Oc2ccc(NC(=O)CCN3CCOCC3)cc2CC(=O)N([C@@H](C)CO)C[C@H]1C`, the relative growth is inactive: 1.03.

For the compound `Cc1noc(C)c1NC(=O)Nc1ccc2c(c1)C(=O)N([C@@H](C)CO)C[C@@H](C)[C@@H](CN(C)C(=O)c1ccccc1)OCCCC[C@@H](C)O2`, the relative growth is inactive: 0.977.

Take `C[C@H](CO)N1C[C@H](C)[C@@H](CN(C)S(C)(=O)=O)OCCCC[C@H](C)Oc2ccc(NC(=O)CCCN(C)C)cc2C1=O`: the relative growth was inactive: 0.994.

With `COc1ccc(C#Cc2ccc3c(c2)[C@]2(C(=O)N3)[C@H](C(=O)N3CCN(c4ncccn4)CC3)[C@H]3C(=O)O[C@H](c4ccccc4)[C@H](c4ccccc4)N3[C@@H]2c2ccccc2OCCO)cc1`, the relative growth was inactive: 1.07.

Regarding `C[C@H]1CN([C@@H](C)CO)C(=O)c2cc(NC(=O)CCN3CCOCC3)ccc2O[C@H]1CN(C)CC1CC1`, the relative growth is inactive: 1.02.

In the case of `C[C@H](CO)N1C[C@H](C)[C@H](CN(C)S(=O)(=O)c2ccc(F)cc2)Oc2ccc(NS(=O)(=O)c3ccc(F)cc3)cc2C1=O`, the relative growth is inactive: 0.926.

In the case of `O=C(C[C@H]1C=C[C@H](NC(=O)c2ccc(F)cc2)[C@H](CO)O1)NCc1ccncn1`, the relative growth is inactive: 1.01.

As to `COc1ccc2c(C)cc(=O)oc2c1`, the relative growth is inactive: 0.968.

As to `C[C@@H]1CN([C@H](C)CO)C(=O)c2cc(NC(=O)Cn3cnnn3)ccc2O[C@@H]1CN(C)C(=O)Nc1ccc(F)cc1`, the relative growth is inactive: 0.957.

In the case of `C[C@H](CO)N1C[C@H](C)[C@@H](CN(C)C(=O)c2ccccc2)OCCCC[C@H](C)Oc2ccc(NS(=O)(=O)c3ccccc3)cc2C1=O`, the relative growth was inactive: 0.975.
